Read counts are not given, so values of variants with three or more changes are uncertain.

B1: LINE1-mini (parent)
chain: GGCAGAGCUCAACACAGCGUGGCAAAGUGGCUGUGGCUAGACUGCC

In the series the parent is B1. Briefly: self-cleavage, relative activity (ratio to wild type); higher = more cleavage; in vitro, sequencing; the parent is a self-cleaving ribozyme.
Take GGCAGAGAUCAACACAGCGUGGCAAAGUGGCUGUGACUAGACUGCU [C8A G36A C46U]: the self-cleavage came out at 1.35.

As to GGCAGAGAUCAACACAGCGUGGCAAAGUGGCUGUGACUAGAUUGCC [C8A G36A C42U], the self-cleavage is 2.93.

For the variant GGCAGAGAUCAACACAUCCUGGCAAAGUGGCAGUGGCUAGACUGCA [C8A G17U G19C U32A C46A], the self-cleavage worked out at 0.09.

Take GGCAGAGAUCAACACAGCGUGGCAAAAUGGCUGUGGCUAGGCUGAC [C8A G27A A41G C45A]: the self-cleavage was 0.17.

Regarding GGCAGAGAUCAACACAGCGUGGCAAAGUGGCUGUGGCUAGAAUGGC [C8A C42A C45G], the self-cleavage came out at 0.39.

As to GGCAGAGAUCAACACAGCGUGGCAAAGCGGCUGUGGCUAGACAGCC [C8A U28C U43A], the self-cleavage came to 0.19.

Consider GGCAGAGAUCAACACAGCCUGGCAAAGUGGCUGUGGCUAGAUUGCC [C8A G19C C42U], for which the self-cleavage came out at 0.02.

Regarding GGCAGAGAUCAACACAGCGUGGAAAGGUGGCUGAGGCUAGACUGCC [C8A C23A A26G U34A], the self-cleavage came out at 0.53.

As for GGCAGAGAUCAACACAGUGGGGCAAAGUGGCUGUGGCUAGACUUCC [C8A C18U U20G G44U], the self-cleavage came out at 0.08.

Regarding GGCAGAGACCAACACCGCGUGGAAAAGUGGCUGUGGCUAGACUGCC [C8A U9C A16C C23A], the self-cleavage was determined as 0.29.

In the case of GGCAGAGAUCAACACAGCGUUGCAAAGUAGCUGCGGCUAGACUGCC [C8A G21U G29A U34C], the self-cleavage was determined as 0.16.

As for GGCAGAGAUCAACACAGCUUGGCAAAGUGGCUGUGGCUAGCCUUCC [C8A G19U A41C G44U], the self-cleavage stood at 0.19.

Turning to GGCAGAGAUCAACACAGCGUGGCAAAGUAGCUGUGGCACGACUGCC [C8A G29A U38A A39C], the self-cleavage came to 0.15.

For GGCAGAGAUCAACACAGCGUCGCAAAGUGGCUUUGGCUAGAUUGCC [C8A G21C G33U C42U], the self-cleavage was 0.26.

For the variant GGCAGAGACCAACACAGCGUGGCAAAGUGGCUGUGGCUAGACAGCC [C8A U9C U43A], the self-cleavage stood at 0.11.

As to GGCAGAGGUCGGCACACCGUGGCAAAUUGGCCGUGGCUAGACUGCC [C8G A11G A12G G17C G27U U32C], the self-cleavage is 0.01.

On to GGCAGAGAUCAACACAGCGUGGCAAAGUGGCUGUGGCUAUAAUGCC [C8A G40U C42A], for which the self-cleavage was 0.39.

Regarding GGCAGAGGUCAUCACAGCGUGGCAAAGCGGCGGUGGCUAGACUGCC [C8G A12U U28C U32G], the self-cleavage came to 0.07.

Regarding GGCAGAGAUCAACACAGCGUGGCAAAGUGACUGUGGCUAGACUUCC [C8A G30A G44U], the self-cleavage is 0.16.

On to GGCAGAGAUCAACACAGCAUGGCAAAGUGCCUGUAGUUAGACUGCC [C8A G19A G30C G35A C37U], for which the self-cleavage was determined as 0.1.

On to GGCAGAGAUCAACACAGCGUGGCAAAGUAGGUGUGGCUAGACUGCC [C8A G29A C31G], for which the self-cleavage was determined as 0.18.

With GGCAGAGGUCUAAACAGCGUGGCAAAUUGGCUGUGGCUAGUCUGCC [C8G A11U C13A G27U A41U], the self-cleavage was determined as 0.02.

In the case of GGCAGAGGUCAGCACAGCGUGGCAAAGAGGCCGUGGCUAGACUGCU [C8G A12G U28A U32C C46U], the self-cleavage is 0.02.

Turning to GGCAGAGAUCAACACAGCGUGGCAAAUUGGCUGUUGCUAGACUACC [C8A G27U G35U G44A], the self-cleavage was found to be 0.27.

As to GGCAGAGAUCAACACAGCGAGGCAAAGUGGCUGUGUCAAUACUGCC [C8A U20A G36U U38A G40U], the self-cleavage stood at 0.07.

For the variant GGCAGAGAUCAACACAACGUGGCAAAGUGGCUGUGUCUAGACUGCC [C8A G17A G36U], the self-cleavage was 0.24.

Regarding GGCAGAGACCAACACAGCGUGGCAAAAUGGCUGUGUCUAGACUGCC [C8A U9C G27A G36U], the self-cleavage is 0.04.

GGCAGAGAGCAACACAGCGUGGCAAAGUGGCUGUGGCUUGACUGCC [C8A U9G A39U]: the self-cleavage came to 0.

On to GGCAGAGAUCAACACAUCGUGGCAAAGUGCCUGUGGCCAGAUUGCC [C8A G17U G30C U38C C42U], for which the self-cleavage came out at 0.05.

Consider GGCAGAGAUCAACACAGCGAGGCAAAGUGGCGGUGGCUAGUCUGCC [C8A U20A U32G A41U], for which the self-cleavage worked out at 0.07.

Consider GGCAGAGAUCAACACAGCGUGGCAAAUUGGCUAUGGCUAGACUGCC [C8A G27U G33A], for which the self-cleavage is 0.05.

On to GGCAGAGAUCAACACAGCGUGGCAAAGUACCUGUGGCUAGACUGCC [C8A G29A G30C], for which the self-cleavage was 0.17.

Regarding GGCAGAGGUCGCCAUAGCGUGGCAAAGUGGCUGUGGCUACACUGCC [C8G A11G A12C C15U G40C], the self-cleavage was determined as 0.01.

For the variant GGCAGAGAUCAACACAGCGCGGCAAAGUGGCUGUGGCUAGACUGCA [C8A U20C C46A], the self-cleavage was 0.11.

In the case of GGCAGAGAUCAACACAGCGUGGGAAGGUGGCUUUGGCUAUACUGCC [C8A C23G A26G G33U G40U], the self-cleavage came to 0.32.

With GGCAGAGGUCAACCCUGCGUGGCAAAGUGGCUGUGGCUAGACUGCC [C8G A14C A16U], the self-cleavage is 0.07.

As to GGCAGAGAUCAACACAGCGUGGAAAAGUGGCUGUGGCUAGUCUGCC [C8A C23A A41U], the self-cleavage worked out at 0.57.

Regarding GGCAGAGAUCAACACAGCGUGUCAAUGUGGCUGUGGCUAGACUACC [C8A G22U A26U G44A], the self-cleavage is 0.26.

On to GGCAGAGAUCAACACAUCGGGGCAAAGUGGCUGUGGCUAGUCUGCC [C8A G17U U20G A41U], for which the self-cleavage stood at 0.17.

As for GGCAGAGAUCAACACAGCGUGUCAAAGGGGCCGUGGCUAGUCUGCC [C8A G22U U28G U32C A41U], the self-cleavage worked out at 0.07.

Turning to GGCAGAGGUCAUCACAACGUGGCAAAGUGGCUGUGGCUAGACUGCC [C8G A12U G17A], the self-cleavage was determined as 0.03.

Take GGCAGAGAUCAACACAGCGUGGCAAACUGGCUGUGGUUAGACCGCC [C8A G27C C37U U43C]: the self-cleavage came out at 0.05.

With GGCAGAGGUCCACACAGCGUGGCAAAGUGGCUGUGGCUAGACGGCC [C8G A11C U43G], the self-cleavage was determined as 0.

Consider GGCAGAGGUCGACACAGCGUGGCAAAGUGGCUGUGGUUAAACUUCC [C8G A11G C37U G40A G44U], for which the self-cleavage was 0.01.

Take GGCAGAGAUCAACACAGCGUGGCAAAGUGGCUGUGGCUAGAAAGCC [C8A C42A U43A]: the self-cleavage is 0.27.

On to GGCAGAGAUCAACACAGCGUGGCAAAGUGGCUCUGGGUAGACUGCC [C8A G33C C37G], for which the self-cleavage amounted to 0.28.

In the case of GGCAGAGAUCAACACAGCGUGGCAAAGUGGCUGCAGCUAGACUGCC [C8A U34C G35A], the self-cleavage is 0.02.

In the case of GGCAGAGAUCAACACAGCGUGGCAAAGUAGCAGUGGAUAGACUGCC [C8A G29A U32A C37A], the self-cleavage is 0.03.

In the case of GGCAGAGAUCAACACAGCGUGGCAAAGUGGCUGUGGUUAGACUGAC [C8A C37U C45A], the self-cleavage amounted to 0.17.

As for GGCAGAGAUCAACACAGUGUGGCAAAGUGGCUGUGGCUAUACUGCC [C8A C18U G40U], the self-cleavage was determined as 0.19.

GGCAGAGAACAACACAGCGUGGCGCAGUGGCCGUAGCUAGAUUGCC [C8A U9A A24G A25C U32C G35A C42U]: the self-cleavage was found to be 0.06.

As for GGCAGAGAACAACGCAGCGUGGCAAAGUGGCUGUGACUAGACGUCC [C8A U9A A14G G36A U43G G44U], the self-cleavage is 0.24.

Regarding GGCAGAGAUCAACACAACGUGGCAAAGUGGCUGUGGCUAGACUGCU [C8A G17A C46U], the self-cleavage was determined as 0.13.

In the case of GGCAGAGAUCAACACAGCGUGGCAAAGUGGCUGUGGCUAAGCUGCC [C8A G40A A41G], the self-cleavage amounted to 0.42.

Consider GGCAGAGAUCAACACAGCGUCGCAAAGUGGCUGUGGCAAGCCUGCC [C8A G21C U38A A41C], for which the self-cleavage worked out at 0.2.

Consider GGCAGAGGUCUACACAGCGUGGCAACGUGGCUGUGGCUAUACUGCC [C8G A11U A26C G40U], for which the self-cleavage was determined as 0.01.
